Data published in PubChem BioAssay AID1346428 (National Center for Advancing Translational Sciences (NCATS), 2018).
Out of some 48,000 compounds screened, about 1,200 (2.5%) were called active. Roughly 2% stayed inconclusive and do not appear here.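 Rule for the calls: active = activation of at least 60% and not above a set upper limit (about 1 call in 100 departs from these limits); inconclusive = activation of 40% to 60%, or above that upper limit; inactive = activation under 40%.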 The list shows a part of the results.

Target: Probable G-protein coupled receptor 32 (Homo sapiens) (UniProt O75388)
Assay: qHTS for Agonists of Human Resolvin D1 Receptor DRV1; note: 0% is about no effect
Conditions: CHO-K1 GPR32 beta-arrestin PathHunter luminescence, 90 min; at 76.9 µM; active compounds read high; zero percent set by DMSO-only wells
How it was run: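 Step 1: seed CHO-K1 GPR32 beta-arrestin cells, 2,500/well, overnight at 37 °C. Step 2: add compounds, 90 min at 37 °C. Step 3: detection reagent, 1 h ambient, then luminescence.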

Sequence of UniProt O75388 (O75388 whole entry, looked up): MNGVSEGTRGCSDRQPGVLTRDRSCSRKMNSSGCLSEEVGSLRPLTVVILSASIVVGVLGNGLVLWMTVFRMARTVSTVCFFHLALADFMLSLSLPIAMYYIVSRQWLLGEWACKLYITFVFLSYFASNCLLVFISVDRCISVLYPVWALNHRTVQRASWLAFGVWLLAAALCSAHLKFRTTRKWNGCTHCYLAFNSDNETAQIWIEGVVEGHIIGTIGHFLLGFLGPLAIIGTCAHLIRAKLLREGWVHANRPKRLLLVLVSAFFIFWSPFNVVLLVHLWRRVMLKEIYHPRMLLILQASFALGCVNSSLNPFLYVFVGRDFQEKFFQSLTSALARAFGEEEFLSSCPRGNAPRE

Compound	activation
Cc1ccc(C)c(Cn2c(=O)n(-c3ccc(Cl)cc3)c(=O)c3c4c(sc32)CCC4)c1	inactive: -0.328%
COc1ccc(OC)c(S(=O)(=O)NCCc2sc(-c3cccnc3)nc2C)c1	inactive: -19.9%
CC(=O)OC1=CN(Cc2ccccc2)S(=O)(=O)c2ccccc21	inactive: -11.1%
CCc1nn(CC(=O)Nc2ccc(C)c(F)c2)c(=O)c2cc3cc(C)ccc3n12	inactive: -2.99%
COc1ccc(OC)c(CNC(=O)C2CCN(S(=O)(=O)N3CCCCC3)CC2)c1	inactive: -8.53%
Cc1ccc(-c2onc(C)c2C)cc1S(=O)(=O)NCc1cccs1	inactive: -9.69%
COc1ccccc1N1CCN(c2nc3ccc(C(=O)c4ccccc4)cc3n3c(C)nnc23)CC1	inactive: -1.13%
Cc1cccc(C)c1Nc1c(-c2ccccc2Cl)nc2cnccn12	inactive: 10.7%
CCCN(Cc1cccs1)C(=O)Nc1cc(C)ccc1OC	inactive: -18.6%
O=C(c1ccc2c(c1)N(Cc1ccc(Cl)cc1)C(=O)c1ccccc1S2(=O)=O)N1CCCCCC1	inactive: -12.4%
Cc1ccc(-c2cn3c(n2)sc2cc(C(=O)NCCC4=CCCCC4)ccc23)c(C)c1	inactive: -10.7%
CCOc1ccc(S(=O)(=O)NCC(c2ccc(N(C)C)cc2)N2CCCC2)cc1 (centres undefined)	inactive: -22.3%
O=C(COc1ccc(F)cc1)Nc1ccc2nc(SCC(=O)N3CCCC3)sc2c1	inactive: -8.24%
COc1ccccc1N1CCN(C2C(=O)c3ccccc3N2C(C)=O)CC1 (centres undefined)	inactive: -23.9%
CCCn1c(=O)c2[nH]c(C3CCCC3)nc2n(CCC)c1=O	inactive: 8.85%
Cc1cccc(C)c1NC(=O)c1cc(S(N)(=O)=O)c(Cl)cc1O	inactive: -27.8%
CCOc1ccc(-c2nnc(SCC(=O)Nc3ccccc3C(F)(F)F)o2)cc1	inactive: 20.6%
Cc1ccc(N2C(=O)C(CC(=O)Nc3ccc(F)cc3)N(CCC3=CCCCC3)C2=O)cc1 (centres undefined)	inactive: 16.9%
O=C(NCC(c1cccs1)S(=O)(=O)c1cccs1)c1ccccc1F (centres undefined)	inactive: 13.1%
Cc1ccc(S(=O)(=O)N(CC(=O)Nc2ccc(C(C)C)cc2)Cc2ccccc2)cc1	inactive: -0.0716%
CC(=O)N1c2ccc(S(=O)(=O)NCC3CCC(C(=O)NC(C)(C)C)CC3)cc2CC1C (centres undefined)	inactive: -3.15%

Compound	activation
Cc1ccccc1NC(=O)CCC(=O)N1CCSc2ccccc21	inactive: -14.3%
Clc1ccccc1N1CCN(c2ncnc3c2c(-c2ccccc2)cn3-c2ccccc2)CC1	inactive: -32.3%
CCN(CC)c1nn2c(=O)c(C(=O)NCc3ccc(OC)cc3OC)cnc2s1	inactive: 10.8%
CCOC(=O)c1[nH]c2ccccc2c1NC(=O)c1ccccc1OCC	inactive: -25.5%
Cc1ccc(-n2nc3ccc(NC(=O)c4oc5ccccc5c4C)cc3n2)cc1	inactive: 7.92%
COc1ccccc1CNC(=O)c1ccccc1NC(=O)c1nsc2ccccc12	inactive: -3.99%
O=C(Nc1ccc2c(c1)CCCN2C(=O)c1cccs1)c1cccc(C(F)(F)F)c1	inactive: -23.1%
CCOc1ccc(-c2nnc(SCC(=O)NC3CCCC3)nc2-c2ccc(OCC)c(OC)c2)cc1OC	inactive: -6.82%
Clc1cccc(-n2ncc3c(NC4CCCCC4)ncnc32)c1	active: 109%
CCN(C(=O)c1noc2c1COc1ccc(C)cc1-2)c1cccc(C)c1	inactive: -6.68%
O=C(Nc1ccccc1F)c1nc(S(=O)(=O)Cc2ccccc2F)ncc1Cl	inactive: -25.7%
Cc1cccc(N2CCN(C(=O)c3cc(S(=O)(=O)N4CCC(C)CC4)cn3C)CC2)c1C	inactive: -28.9%
CC(C)(C)OC(=O)N1CCC(c2c(C(=O)NCCN3CCC(Cc4ccccc4)CC3)cnn2-c2cccc(Cl)c2)CC1	inactive: 26.4%
O=C(NCc1ccc(Cl)cc1)C(=O)NCC(c1cccs1)S(=O)(=O)c1ccc(Cl)cc1 (centres undefined)	inactive: -14.2%
CCCNC(=O)c1ccc2c(c1)N=C(C)c1c(C)ccc(C)c1S2	inactive: -1.41%
O=C(NCCCN1CCN(c2ccccc2)CC1)c1nnc(Cc2c(F)cccc2Cl)o1	inactive: -23.7%
CCOC(=O)C1CCN(C(=O)c2cc3ccc4cccnc4c3[nH]2)CC1	inactive: -5.17%
CCOc1ccc(CCNC(=O)C2CCN(c3ncnc4c3nc3n4CCCCC3)CC2)cc1	inactive: -11.6%
COc1ccc(N2CCN(C(=O)c3cnc(N4CCCC4)nc3C)CC2)cc1	inactive: -3.48%
CSc1ccc(CNC(=O)CCn2ccc3cc(S(=O)(=O)N4CCC(C)CC4)ccc32)cc1	inactive: -30.5%
COc1cccc(-n2nnc3c(sc4nc(C)cc(C)c43)c2=O)c1	inactive: -0.939%

Compound	activation
Cc1c(Cl)cccc1NC(=O)N1CCC(CN2CCCC2)CC1	inactive: -10.4%
CCC(Sc1nc2ccccc2c2nc(CCc3c(C)n[nH]c3C)nn12)C(=O)Nc1ccc(F)cc1 (centres undefined)	inactive: 0.369%
COc1ccccc1CNS(=O)(=O)c1ccc2[nH]c3c(c2c1)CCCCC3	inactive: 35.2%
CC1=C(c2ccc(C)cc2)S(=O)(=O)N(Cc2ccc(C(=O)NCc3cccc(C)c3)cc2)C1=O	inactive: -10.7%
COC(=O)c1ccc(NC(=O)CSc2nc3ccc(OC)cc3[nH]2)cc1	inactive: 47.6%
Cc1ccc(NC(=O)CSc2nc(C)c(Cc3ccccc3)c(=O)[nH]2)cc1	active: 62.7%
O=C(NCc1ccccc1Br)C1CCCN(C(=O)N2CCOc3ccccc32)C1 (centres undefined)	inactive: -5.43%
COCCCNC(=O)Cn1c(=O)n(Cc2ccc(C(=O)NCc3ccc(C)cc3)cc2)c(=O)c2ccccc21	active: 98.3%
COC(=O)c1c(NC(=O)c2cc(=O)c3ccc(C)c(C)c3o2)sc2c1CCCC2	inactive: 19.3%
COc1ccc(CCNC(=O)CN(c2ccccc2OC)S(=O)(=O)c2ccc(C)cc2)cc1	inactive: -2.36%
O=C(Nc1sc2c(c1C(=O)Nc1ccccc1Cl)CCCC2)c1ccccc1F	inactive: -12.9%
COc1ccc(CCNC(=O)Cc2c(C)c3c(cc(C)c4c(C)coc43)oc2=O)cc1	inactive: -5.81%
COc1ccc(-c2cc3nc(-c4ccccc4)cc(C(F)(F)F)n3n2)cc1	inactive: -5.71%
Cc1ccc(NC(=O)CN2C(=O)CSc3ccc(S(=O)(=O)N4CCCC4)cc32)cc1F	inactive: -16.7%
COC(=O)c1cc(NC(=O)c2oc(=O)c3ccccc3c2-c2ccccc2)cc(C(=O)OC)c1	inactive: -4.48%
COc1cc(OC)c(NC(=O)c2nnn(Cc3ccc(C)cc3)c2N)cc1Cl	inactive: -10.5%
Cc1ccc(NC(=O)c2c(NC(=O)c3ccco3)sc3c2CCC(C(C)(C)C)C3)c(C)c1 (centres undefined)	inactive: 10.7%
CCc1ccc(NC(=O)c2cc(S(=O)(=O)NC3CCCC3)ccc2F)cc1	inactive: -6.4%
COc1ccc(Br)cc1CNC(=O)Cn1c(=O)c2cccn2c2ccc(F)cc21	inactive: -13%
O=C(Cc1ccc(F)cc1)NC1CC(=O)N(c2ccc3c(c2)OCCO3)C1 (centres undefined)	inactive: -1.95%
COc1cccc(-c2cn3c(n2)sc2cc(C(=O)NC4CCCCCC4)ccc23)c1	inactive: -11.4%

Compound	activation
O=C(Cn1ncc2c3ccccc3n(Cc3ccc(Cl)cc3)c2c1=O)N1CCCCCC1	inactive: -15%
CCC(C)c1ccc(OCC(=O)Nc2cccc(-c3nc4ncccc4o3)c2)cc1 (centres undefined)	inactive: 47%
CCOc1ccc(NC(=O)c2oc3ccccc3c2NC(=O)Cc2ccc(F)cc2)cc1	inactive: -14.1%
Cc1ccccc1Cn1cc(CCC(=O)NC(C)c2ccccc2)c2ccccc21 (centres undefined)	inactive: -36.3%
Cc1cc(C)c2oc(-c3cccc(NC(=O)c4ccc(Br)o4)c3)nc2c1	inactive: -1.46%
COc1ccc(OC)c(NC(=O)CN(C)S(=O)(=O)c2ccc(C(=O)N3CCOCC3)s2)c1	inactive: -11%
O=C(Cn1cnc2c(oc3ccccc32)c1=O)Nc1ccccc1C(F)(F)F	inactive: -7.47%
COc1ccc(C)cc1NC(=O)N(Cc1ccc(C)o1)C1CCN(C(C)=O)CC1	inactive: -10.2%
Cc1ccc(-c2nnc(Nc3cccc(Cl)c3)c3ccccc23)cc1S(=O)(=O)N1CCOCC1	inactive: -1.66%
COc1ccccc1NC(=O)Cn1c(=O)n(Cc2ccccc2)c(=O)c2sc3ccccc3c21	inactive: -1.24%
Cc1cc(C)c(NC(=O)CSc2nc3ccccc3nc2N2CCCCC2)c(C)c1	inactive: 2.68%
CC1CCN(C(=O)Cn2cc(SCC(=O)NCc3ccccc3Cl)c3ccccc32)CC1	inactive: -20.5%
CCC(=O)Nc1cc(C)c(O)c(-c2nc3ncccc3o2)c1	inactive: -9.52%
O=C(NCc1cccc(Cl)c1)c1cc2ccc3cccnc3c2[nH]1	inactive: 46.3%
CC(C)COc1ccc(C(=O)Nc2ccc(S(=O)(=O)Nc3ncccn3)cc2)cc1	inactive: -5.29%
CCC(C(=O)Nc1cccc(Cl)c1C)n1nc(-c2ccc(C)cc2)ccc1=O (centres undefined)	inactive: 47.3%
CC(C)COc1cccc(C(=O)Nc2ccc(-c3nc4ncccc4o3)cc2)c1	inactive: -2.99%
CCCc1nc2sc3c(N4CCC(C)CC4)ncnc3c2c2c1CCCC2	inactive: 7.53%
Cc1cccc(N2CCN(S(=O)(=O)c3ccc4c(c3)CCCN4C(=O)C3CCC3)CC2C)c1 (centres undefined)	inactive: -27.4%
Cc1ccc(Cl)cc1NC(=O)C(C)n1nnc2sc3c(c2c1=O)CCCC3 (centres undefined)	inactive: 6.77%
CCCN1C(C(=O)c2ccccc2)=C(OC(=O)COc2ccccc2)c2ccccc2S1(=O)=O	inactive: -69.7%
